Experimental data as given in patent US20230416360A1 (SIMCERE ZAIMING PHARMACEUTICAL, published 2023).

Assays:
[1] = target: T1, cynomolgus monkey CD22 on peripheral blood B cells (cynomolgus monkey (Macaca fascicularis)); assay: FACS, cynomolgus PBMC, CD20+ B cells, antibody 1 nM
T1 construct: whole, on cells; also called cynomolgus monkey B cells
Experimental: After the cell suspension was centrifuged, the cells were resuspended in PBS containing 1% BSA, and then the cells were counted. […] After washing the cells three times, APC-labeled secondary antibody anti-human IgG Fc (catalog number: 409306, purchased from Biolegend) was added. After incubation at room temperature in the dark for 30 minutes, the cells were washed 5 times, gently resuspended with PBS containing 1% BSA, and detected and analyzed by FACS (FACS Canto™, purchased from BD Company).

[2] = target: T2, cynomolgus monkey CD22-ECD-His (cynomolgus monkey); assay: SPR (Biacore), antibody captured on Protein A, cyno CD22-ECD-His analyte
T2 construct: extracellular domain; Bought; also called cynoCD22
Experimental: Sample buffer and running buffer were HBS-EP+(10 mM HEPES, 150 mM NaCl, 3 mM EDTA, 0.05% surfactant P20) (GE Healthcare; BR-1006-69). The flow-through cell was set to 25° C. The sample block was set to 16° C. Both were pretreated with the running buffer. In each cycle, the antibody to be tested was first captured with a Protein A chip, then a single concentration of CD22 antigen protein was injected. The binding and dissociation process of the antibody and the antigen protein was recorded, and finally Glycine pH 1.5 (GE Healthcare; BR-1003-54) was used to complete chip regeneration. […] The concentration started from 200 nM (see the detailed results for the actual concentration in the test) and was diluted at 1:1, making a total of 5 concentrations. The dissociation phase was monitored for up to 600 s and was triggered by switching from sample solution to running buffer. The surface was regenerated by washing with a 10 mM of glycine solution (pH 1.5) for 30 s at a flow rate of 30 μL/min. Bulk refractive index difference was corrected by subtracting the response obtained from the goat anti-human Fc surface. Blank injection was also subtracted (=double reference). For calculation of apparent KD and other kinetic parameters, Langmuir 1:1 model was used.

murine CD22-ECD-His [3] = target: T3, murine CD22-ECD-His (mouse, UniProt P35329 22-708); assay: ELISA, coated mouse CD22, antibody 10 nM
T3 construct: extracellular domain; Bought; also called mouse CD22; murine CD22 protein
T3 sequence (looked up): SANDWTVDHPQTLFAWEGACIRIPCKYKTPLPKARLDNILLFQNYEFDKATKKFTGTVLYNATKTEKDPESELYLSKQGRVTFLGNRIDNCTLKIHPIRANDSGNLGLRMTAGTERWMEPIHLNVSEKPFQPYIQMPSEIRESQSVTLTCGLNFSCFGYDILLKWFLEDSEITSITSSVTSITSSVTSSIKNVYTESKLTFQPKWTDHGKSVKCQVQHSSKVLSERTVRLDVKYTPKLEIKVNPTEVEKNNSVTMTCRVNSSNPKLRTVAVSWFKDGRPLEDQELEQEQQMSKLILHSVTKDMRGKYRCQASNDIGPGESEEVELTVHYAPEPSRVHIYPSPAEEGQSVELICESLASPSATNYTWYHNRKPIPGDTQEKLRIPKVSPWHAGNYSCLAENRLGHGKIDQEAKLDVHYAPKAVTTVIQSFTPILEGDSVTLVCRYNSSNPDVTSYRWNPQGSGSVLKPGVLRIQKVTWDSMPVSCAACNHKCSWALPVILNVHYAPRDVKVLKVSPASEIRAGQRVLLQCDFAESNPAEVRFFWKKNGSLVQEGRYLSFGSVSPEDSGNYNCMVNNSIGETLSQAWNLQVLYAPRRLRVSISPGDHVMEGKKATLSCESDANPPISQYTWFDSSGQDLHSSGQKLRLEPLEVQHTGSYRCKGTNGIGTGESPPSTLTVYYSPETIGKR
Experimental: (§1) The plate was sealed with plastic film and incubated overnight at 4° C., the plate was washed 2 times with PBS the next day, and then a blocking solution [PBS+2% (w/w) BSA] was added for blocking at room temperature for 2 hours. […] After incubation at 37° C. for 2 hours, the plate was washed 3 times with PBS. HRP (horseradish peroxidase)-labeled secondary antibody (purchased from Sigma, catalog number: A0170) was added, and incubated at 37° C. for 2 hours, and the plate was washed 5 times with PBS. TMB substrate was added at 50 μl/well, and incubated at room temperature for 30 minutes, then a stop solution (1.0 N HCl) was added at 50 μl/well.

murine CD22-ECD-His [4] = target: T3, murine CD22-ECD-His; assay: ELISA, coated mouse CD22, antibody 0.001 nM
Experimental: as §1

murine CD22-ECD-His [5] = target: T3, murine CD22-ECD-His; assay: ELISA, coated mouse CD22, antibody 0.0001 nM
Experimental: as §1

murine CD22-ECD-His [6] = target: T3, murine CD22-ECD-His; assay: ELISA, coated mouse CD22, antibody 0.00001 nM
Experimental: as §1

murine CD22-ECD-His [7] = target: T3, murine CD22-ECD-His; assay: ELISA on coated murine CD22-ECD-His, lower panel
Experimental: as §1

human CD22 domain5-7-His [8] = target: T4, human CD22 domain5-7-His (human, UniProt P20273 414-687); assay: ELISA on coated human CD22 domain5-7-His, bottom panel
T4 construct: Proximal end of membrane fragment; also called hCD22 domain5-7-His; not shown: His tag
T4 sequence: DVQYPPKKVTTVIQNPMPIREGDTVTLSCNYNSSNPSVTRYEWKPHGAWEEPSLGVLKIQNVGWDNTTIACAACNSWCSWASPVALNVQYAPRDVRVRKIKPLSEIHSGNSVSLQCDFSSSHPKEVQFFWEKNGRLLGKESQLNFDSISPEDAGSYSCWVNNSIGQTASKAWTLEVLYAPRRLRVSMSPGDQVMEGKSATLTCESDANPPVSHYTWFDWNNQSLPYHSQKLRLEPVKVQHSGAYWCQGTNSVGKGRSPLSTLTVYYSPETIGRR

murine CD22-ECD-His [9] = target: T3, murine CD22-ECD-His; assay: ELISA on coated murine CD22-ECD-His, upper panel
Experimental: as §1

human CD22 domain5-7-His [10] = target: T4, human CD22 domain5-7-His; assay: ELISA on coated human CD22 domain5-7-His, top panel

B1: HA22 scFv-hFc (Fc fusion)
chain: EVQLVESGGGLVKPGGSLKLSCAASGFAFSIYDMSWVRQTPEKCLEWVAYISSGGGTTYYPDTVKGRFTISRDNAKNTLYLQMSSLKSEDTAMYYCARHSGYGTHWGVLFAYWGQGTLVTVSAGGGGSGGGGSGGGGSDIQMTQTTSSLSASLGDRVTISCRASQDISNYLNWYQQKPDGTVKLLIYYTSILHSGVPSRFSGSGSGTDYSLTISNLEQEDFATYFCQQGNTLPWTFGCGTKLEIK[human IgG1 Fc with changes cut from this listing]
In the case of B1, the “Proportion of VHH-Fc antibody positive cells to B cells (%)” value (shortened to “Proportion … (%)”) [1] is reported as 59%, the koff [2] is reported as 0.000376 s⁻¹ and the kon [2] is reported as 12700 M⁻¹ s⁻¹.

B2: S002-NB151-92 VHH-Fc (Fc fusion)
chain: QVQLVESGGGLVQSGGSLRLSCAASGFTFSDYTMNWVRQAPGKGLEWVSEISSGGHFKSNADSVKDRFTISRDNAKNTLYLQMNSLKPEDTAVYFCAKCPRPSVYCRDYESTSLYRGQGTQVTVSS[human IgG1 Fc with changes cut from this listing]
notes: VHH cloned into vector BI3.4-huIgG1 (hinge and human IgG1 Fc), made in HEK293E; also called 5002-NB151-92
With B2 the OD450 (murine CD22-ECD-His [3]) was 0.05, the OD450 (murine CD22-ECD-His [4]) was 0.05 and the OD450 (murine CD22-ECD-His [5]) was 0.05. The OD450 (murine CD22-ECD-His [6]) was 0.06, the “Proportion … (%)” value [1] was 54% and the binding result (murine CD22-ECD-His [7]) was “no binding (tested: 100 nM)”. The “EC50 (read off the curve)” value (human CD22 domain5-7-His [8]) was about 0.3 nM.

B3: S002-NB150-159n VHH-Fc (Fc fusion)
chain: QVQLVESGGGLVQAGDSLRLACEASGRTATISTMGWFRQAPGKEREFVGRIDWSAESTYIVDSVKGRFIISRDNAKNAGYLQMNSLKPVDTAVYYCAAIVVRERSYKYWGQGTQVTVSS[human IgG1 Fc with changes cut from this listing]
notes: VHH cloned into vector BI3.4-huIgG1 (hinge and human IgG1 Fc), made in HEK293E; also called S002-NB150-15911
In the case of B3, the OD450 (murine CD22-ECD-His [3]) is reported as 0.05, the OD450 (murine CD22-ECD-His [4]) is reported as 0.05 and the OD450 (murine CD22-ECD-His [5]) is reported as 0.05. For the same binder, the OD450 (murine CD22-ECD-His [6]) was 0.05, the “Proportion … (%)” value [1] was 4% and the binding result (murine CD22-ECD-His [7]) was “no binding (tested: 100 nM)”. For the same binder, the “EC50 (read off the curve)” value (human CD22 domain5-7-His [8]) was about 0.4 nM.

B4: S002-NB151-51 VHH-Fc (Fc fusion)
chain: QVQLVESGGGLVQAGGSLRLSCAASGITSDDYAIGWFRQAPGKEREGVSCMYSSDGSTYYADSVKGRFTISRDNAKNTVYLQMNSLRPEDTAVYHCAAGPWCFVTGVGREEWGQGTQVTVSS[human IgG1 Fc with changes cut from this listing]
notes: VHH cloned into vector BI3.4-huIgG1 (hinge and human IgG1 Fc), made in HEK293E; also called 5002-NB151-51
With B4 the OD450 (murine CD22-ECD-His [3]) was 2.77, the OD450 (murine CD22-ECD-His [4]) was 0.13 and the OD450 (murine CD22-ECD-His [5]) was 0.08. The OD450 (murine CD22-ECD-His [6]) was 0.07, the “Proportion … (%)” value [1] was 90% and the “EC50 (read off the curve)” value (murine CD22-ECD-His [9]) was about 0.2 nM. The binding result (human CD22 domain5-7-His [10]) was “no binding (tested: 100 nM)”, the Kd [2] was 0.507 nM and the koff [2] was 8.31e-05 s⁻¹. The kon [2] was 164000 M⁻¹ s⁻¹.

B5: S002-NB151-36 VHH-Fc (Fc fusion)
chain: QVQLVESGGGLVQAGGSLRLSCAASGLTFSYYGMGWFRQAPGKEREFVAAINWSGTSTYYADSVKDRFTVSRDNAKNTAYLHMNNLKPEDTAVYYCAARKYSSSQAMGLPNDIDYWGQGTQVTVSS[human IgG1 Fc with changes cut from this listing]
notes: VHH cloned into vector BI3.4-huIgG1 (hinge and human IgG1 Fc), made in HEK293E; also called 5002-NB151-36
B5 showed an OD450 (murine CD22-ECD-His [3]) of 0.05, an OD450 (murine CD22-ECD-His [4]) of 0.05 and an OD450 (murine CD22-ECD-His [5]) of 0.05. For the same binder, the OD450 (murine CD22-ECD-His [6]) was 0.06, the “Proportion … (%)” value [1] was 5% and the binding result (murine CD22-ECD-His [7]) was “no binding (tested: 100 nM)”. B5: no binding (tested: 100 nM) (human CD22 domain5-7-His [8]).

B6: S002-NB151-64 VHH-Fc (Fc fusion)
chain: QVQLVESGGGLVQPGGSLTLSCAASGFDFSFYTMTWVRQAQGKGLEWVSTISTGGGGSNYADSVKGRFTISRDNAKKTLYLQMTSLKPEDTAVYYCASHRRGYMFVSSRKNEYDYWGRGTQVTVSS[human IgG1 Fc with changes cut from this listing]
notes: VHH cloned into vector BI3.4-huIgG1 (hinge and human IgG1 Fc), made in HEK293E; also called 5002-NB151-64
B6 showed an OD450 (murine CD22-ECD-His [3]) of 0.06, an OD450 (murine CD22-ECD-His [4]) of 0.05 and an OD450 (murine CD22-ECD-His [5]) of 0.05. The OD450 (murine CD22-ECD-His [6]) was 0.06, the “Proportion … (%)” value [1] was 3% and the binding result (murine CD22-ECD-His [7]) was “no binding (tested: 100 nM)”. B6: no binding (tested: 100 nM) (human CD22 domain5-7-His [8]).

B7: S002-NB150-152n VHH-Fc (Fc fusion)
chain: EVQVVESGGGLVQTGGSLRLSCAASGRPFDWLTVGWFRQAPGKEREFVAAISQSGGRIFYSDSVKGRFTISRDNAKNTAFLQMNSLKPEDTAVYSCAAQMRGYSRAAYPDEYDYWGQGTQVTVSS[human IgG1 Fc with changes cut from this listing]
notes: VHH cloned into vector BI3.4-huIgG1 (hinge and human IgG1 Fc), made in HEK293E
B7 was tested, and the OD450 (murine CD22-ECD-His [3]) was 0.06, the OD450 (murine CD22-ECD-His [4]) was 0.06 and the OD450 (murine CD22-ECD-His [5]) was 0.06. For the same binder, the OD450 (murine CD22-ECD-His [6]) was 0.06, the “Proportion … (%)” value [1] was 0% and the binding result (murine CD22-ECD-His [7]) was “no binding (tested: 100 nM)”. B7: no binding (tested: 100 nM) (human CD22 domain5-7-His [8]).

B8: S002-NB151-14 VHH-Fc (Fc fusion)
chain: QVQLVESGGGLVQAGGSLRLSCTTSGGTLSRITMGWFRQAPGKEREFVAAIKWGGSSTPYSDSVKGRFTISRDNAKNTVYLQMDRLVPEDTAVYYCAGGLRGPYSDSVTSSVQYNYWGQGTQVTVSS[human IgG1 Fc with changes cut from this listing]
notes: VHH cloned into vector BI3.4-huIgG1 (hinge and human IgG1 Fc), made in HEK293E; also called 5002-NB151-14
For B8, the OD450 (murine CD22-ECD-His [3]) was 0.08, the OD450 (murine CD22-ECD-His [4]) was 0.07 and the OD450 (murine CD22-ECD-His [5]) was 0.07. For the same binder, the OD450 (murine CD22-ECD-His [6]) was 0.07, the “Proportion … (%)” value [1] was 84% and the binding result (murine CD22-ECD-His [9]) was “no binding (tested: 100 nM)”. B8: no binding (tested: 100 nM) (human CD22 domain5-7-His [10]).
